Assay results published in US20190062448A1, “ANTI-CD39 ANTIBODIES, COMPOSITIONS COMPRISING ANTI-CD39 ANTIBODIES AND METHODS OF USING ANTI-CD39 ANTIBODIES” (Tizona Therapeutics, priority 2017, published 2019).

Key:
[1] = biological target: T1, human-mouse CD39 chimeras (Homo sapiens, UniProt P49961, E276G/I277V/N275G); experiment: Binding to human-mouse CD39 chimeras and point mutants expressed in CHO cells (FACS); settings: 15 μg/ml antibody
T1 construct: expressed in transfected cells; host or cells: CHO cells
T1 sequence (P49961 1-510 N275G/E276G/I277V): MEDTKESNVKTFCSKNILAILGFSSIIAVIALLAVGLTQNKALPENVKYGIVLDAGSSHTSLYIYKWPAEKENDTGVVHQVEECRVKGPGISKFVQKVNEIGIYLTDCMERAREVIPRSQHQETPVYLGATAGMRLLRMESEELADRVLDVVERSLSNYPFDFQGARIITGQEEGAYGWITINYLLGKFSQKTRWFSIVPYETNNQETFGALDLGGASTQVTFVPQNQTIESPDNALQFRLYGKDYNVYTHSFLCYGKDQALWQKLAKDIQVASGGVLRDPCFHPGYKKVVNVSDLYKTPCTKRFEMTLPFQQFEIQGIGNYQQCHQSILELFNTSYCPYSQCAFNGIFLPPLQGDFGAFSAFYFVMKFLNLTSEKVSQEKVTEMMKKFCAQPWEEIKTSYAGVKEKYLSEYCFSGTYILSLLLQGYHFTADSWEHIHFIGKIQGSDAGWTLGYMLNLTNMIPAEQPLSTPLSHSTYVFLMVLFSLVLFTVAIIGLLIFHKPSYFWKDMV
Description: (§1) Chimeras were generated by replacing human CD39 with mouse CD39 sequence in mammalian expression vectors. The chimeras were expressed in CHO cells and the ability of anti-human CD39 antibodies to bind the chimeras tested via FACS. In brief, cells were washed and blocked in FACS buffer (PBS/2% FBS) for 30 min on ice. They were then incubated with 15 μg/ml anti-human CD39 antibodies diluted in FACS buffer×1 h on ice. After 2 washes, cells were incubated with fluorescently labeled anti-human Fc antibodies, anti-mouse Fc antibodies, or anti-mCD39 antibody (R&D Systems 495826) diluted in FACS buffer per manufacturers' instructions×30 min on ice. After 2 washes, cells were resuspended in FACS buffer and analyzed on BD Fortessa. Data was processed with FlowJo. Positive binding was scored as “yes” and lack of binding was scored as “NO” and examples of FACS plots used to generate this table are in FIGS. 14.F and 14.G.
(§2) Chimeras were generated by mutagenesis of Chimera #2 or WT hCD39 expression vectors. Residues for mutagenesis were chosen based on divergence between human and mouse CD39. The chimeras were expressed in CHO cells and the ability of anti-human CD39 antibodies to bind the chimeras tested via FACS, as described in FIG. 14E. Table 2. Positive binding was scored as “Yes” and lack of binding was scored as “No” and examples of FACS plots used to generate this table are in FIGS. 14.F and 14.G.

[2] = biological target: T2, human-mouse CD39 chimeras (Homo sapiens, UniProt P49961, D150A/E143Q/E153S/L144S/N158S/R147E/R154T/S157K/V151A); experiment: as above; settings: 15 μg/ml antibody
T2 construct: expressed in transfected cells; host or cells: CHO cells
T2 sequence (P49961 1-510 E143Q/L144S/R147E/D150A/V151A/E153S/R154T/S157K/N158S): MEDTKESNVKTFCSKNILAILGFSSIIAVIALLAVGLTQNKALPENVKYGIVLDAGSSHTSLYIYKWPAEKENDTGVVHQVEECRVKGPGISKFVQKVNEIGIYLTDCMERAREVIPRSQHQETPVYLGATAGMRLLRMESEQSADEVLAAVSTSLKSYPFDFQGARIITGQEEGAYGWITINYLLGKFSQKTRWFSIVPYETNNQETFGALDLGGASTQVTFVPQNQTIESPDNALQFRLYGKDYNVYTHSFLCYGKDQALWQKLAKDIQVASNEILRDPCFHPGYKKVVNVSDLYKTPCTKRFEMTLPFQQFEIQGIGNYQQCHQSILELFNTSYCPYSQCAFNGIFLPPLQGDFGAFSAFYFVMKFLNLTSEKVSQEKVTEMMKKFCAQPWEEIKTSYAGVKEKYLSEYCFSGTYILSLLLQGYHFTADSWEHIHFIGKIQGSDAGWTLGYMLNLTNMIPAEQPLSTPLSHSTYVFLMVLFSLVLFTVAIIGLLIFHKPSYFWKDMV
Description: as §1, §2

B1: 31414: inhibitory anti-CD39 antibody, contacts E143-N158 incl. D150 and E153 (antibody)
heavy: QVQLVQSGAEVKKPGASVKVSCKASGYTFKSYEMHWVRQAPGQGLEWMGRINPSVGSTWYAQKFQGRVTMTRDTSTSTVYMELSSLRSEDTAVYYCARGKREGGTEYLRNWGQGTLVTVSSASTKGPSVFPLAPCSRSTSESTAALGCLVKDYFPEPVTVSWNSGALTSGVHTFPAVLQSSGLYSLSSVVTVPSSSLGTKTYTCNVDHKPSNTKVDKRV[human IgG4 Fc with S228P (EU numbers) left out here]
light: EIVLTQSPGTLSLSPGERATLSCRASQSVSSSYLAWYQQKPGQAPRLLIYGASSRATGIPDRFSGSGSGTDFTLTISRLEPEDFAVYYCQQYHSYITFGGGTKVEIKRTVAAPSVFIFPPSDEQLKSGTASVVCLLNNFYPREAKVQWKVDNALQSGNSQESVTEQDSKDSTYSLSSTLTLSKADYEKHKVYACEVTHQGLSSPVTKSFNRGEC
modifications: Synthetic HC, 31414; Synthetic LC, 31414
notes: D150 and E153
[1]
  binding to Chimera #4: able to bind all chimeras but Chimera #2
[2]
  binding to Chimera #2 (human E143-N158 replaced by mouse sequence): able to bind all chimeras but Chimera #2; also recorded: inability to recognize Chimera #2

“Also recorded” adds a separate entry of the source.
